# Test results as given in PubChem BioAssay AID588453 (National Center for Advancing Translational Sciences (NCATS), 2011).
# The whole screen tested about 390,000 compounds, of which about 4,000 (1%) were called active. The inconclusive results got no clear call from the source; some entries with a clear call stand among them for comparison. Calls follow the shape of the dose curve; as a rule, active = well fitted inhibition curve with a large enough effect; inconclusive = small, poorly fitted or top-dose-only effect; inactive = no such curve, though single readings can be large or run the other way. Potencies beside an inconclusive call are fits to weak or partial responses and may not hold up.
# Molecular target: Thioredoxin reductase 1, cytoplasmic (Rattus norvegicus) (UniProt O89049)
# Test: qHTS Assay for Inhibitors of Mammalian Selenoprotein Thioredoxin Reductase 1 (TrxR1): qHTS; also: nearly all actives have a fitted effect of over 65% in size
# Conditions: recombinant rTrxR1, NADPH fluorescence consumption, selenite substrate; series mostly up to 114 µM
# Procedure, shortened: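 Rat TrxR1 (90 nM in the dispensed reagent) was pre-reduced with 400 uM NADPH for 5 min at room temperature, then incubated with compound for 15 min. After 400 uM selenite was added, NADPH fluorescence (Ex 340/Em 450 nm) was followed for 8 min.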
# Potency is read from the fitted curve at half-maximal effect; tags tell the direction and shape of the fitted curve.
# UniProt O89049, sequence (O89049 whole entry, looked up): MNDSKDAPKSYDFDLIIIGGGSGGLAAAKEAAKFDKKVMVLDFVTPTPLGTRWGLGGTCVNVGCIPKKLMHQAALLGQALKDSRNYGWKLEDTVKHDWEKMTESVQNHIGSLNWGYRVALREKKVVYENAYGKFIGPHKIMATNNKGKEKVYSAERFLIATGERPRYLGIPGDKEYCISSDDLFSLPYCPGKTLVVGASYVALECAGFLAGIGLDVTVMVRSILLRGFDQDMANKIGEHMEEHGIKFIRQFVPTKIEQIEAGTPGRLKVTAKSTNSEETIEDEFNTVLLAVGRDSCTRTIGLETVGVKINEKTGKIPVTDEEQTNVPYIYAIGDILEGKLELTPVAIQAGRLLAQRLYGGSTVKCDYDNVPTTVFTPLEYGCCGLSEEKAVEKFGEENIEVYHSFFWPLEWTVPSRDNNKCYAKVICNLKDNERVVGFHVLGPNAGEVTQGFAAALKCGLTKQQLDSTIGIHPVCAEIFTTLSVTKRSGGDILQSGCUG
row,SMILES,Potency
1,Cc1ccc(/C=C2/C(=O)NC(=O)N(CCc3ccc(F)cc3)C2=O)o1,"inconclusive: 22.4 µM [inhibitor, single point]"
2,CCCCCn1c(NC(=O)c2ccco2)c(C(=O)OCC)c2nc3ccccc3nc21,"inconclusive: 2.51 µM [inhibitor, full curve, poor fit]"
3,CN(C)C(=O)Oc1ccc([N+](=O)[O-])cc1,inactive
4,CC(=O)Nc1ccc(C2CN(C)CC2C(=O)c2ccc(Cl)cc2)cc1 (stereo not given),"inconclusive: 20 µM [inhibitor, full curve]"
5,CN1CCC[C@H]1c1cccnc1,inactive
6,CCn1c(O)c(/C=N/NC(=O)c2ccncc2)c(=O)n(CC)c1=S,"inconclusive: 44.7 µM [inhibitor, partial curve]"
7,Clc1ccc(COC(Cn2ccnc2)c2ccc(Cl)cc2Cl)cc1 (stereo not given),"inconclusive: 25.1 µM [inhibitor, single point]"
8,COC(=O)C1=C(c2ccc(C(C)=O)cc2)C[C@@H]2CC[C@H]1N2C(=O)NC1CCCCC1,"inconclusive: 50.1 µM [inhibitor, partial curve, poor fit]"
9,Cc1cccc(N2C(=O)NC(=O)/C(=C/c3cc4c(cc3[N+](=O)[O-])OCO4)C2=O)c1,active: 7.08 µM
10,Cn1c(O)c(/C=N/NC(=O)c2ccncc2)c(=O)n(C)c1=S,"inconclusive: 56.2 µM [inhibitor, partial curve, poor fit]"
11,CC(C)C[C@H]1C(=O)N2CCC[C@H]2[C@]2(O)O[C@](NC(=O)C3C=C4c5cccc6[nH]c(Br)c(c56)C[C@H]4N(C)C3)(C(C)C)C(=O)N12 (stereo not given in full),inactive
12,COc1ccc(-c2cc(=Nc3cccc(C(=O)O)c3)c3cc(C)ccc3o2)cc1,inactive
13,COc1ccc(C2=NCC(=O)N(CC(=O)NCc3ccco3)c3sc4c(c32)CCCC4)cc1,"inconclusive: 70.8 µM [inhibitor, single point]"
14,O=[N+]([O-])c1cc(F)c(N2CCCC2)cc1Br,"inconclusive: 100 µM [inhibitor, partial curve, poor fit]"
15,CCOC(=O)c1c(N)n(Cc2ccco2)c2nc3ccccc3nc12,inactive
16,Cc1ccc(N2C(=O)NC(=O)/C(=C\c3cn(CC(=O)O)c4ccccc34)C2=O)cc1,"inconclusive: 56.2 µM [inhibitor, partial curve, poor fit]"
17,Oc1cc2c(cc1O)[C@H]1c3ccccc3CNC1CC2 (stereo not given in full),"inconclusive: 79.4 µM [inhibitor, partial curve]"
18,O=C1NC(=O)[C@]2(Cc3ccccc3N3CCN(c4ccccc4)CC32)C(=O)N1Cc1ccccc1 (stereo not given in full),"inconclusive: 70.8 µM [inhibitor, single point]"
19,CN(C)C(=O)Oc1ccc(Cl)c2ccccc12,inactive
20,O=C1NC(=O)N(c2ccc3c(c2)OCO3)C(=O)/C1=C/c1ccc(N2CCCCC2)o1,"inconclusive: 22.4 µM [inhibitor, full curve]"

row,SMILES,Potency
1,CNC(=O)Oc1cc2c(cc1C(C)(C)C)CCC2,"inconclusive: 100 µM [inhibitor, single point]"
2,C[C@]12CC[C@H]3[C@@H](CCC4C[C@H](O)CC[C@@]43C)[C@@H]1CC[C@@H]2O (stereo not given in full),"inconclusive: 31.6 µM [inhibitor, partial curve, poor fit]"
3,CN1C(=O)C(Cc2cccc3ccccc23)C(=O)N(C)C1=O,"inconclusive: 20 µM [inhibitor, full curve]"
4,COc1ccc(N/N=C/c2c(O)n(-c3ccc(C)c(C)c3)c(=O)[nH]c2=O)cc1,"inconclusive: 28.2 µM [inhibitor, partial curve, poor fit]"
5,CC1=NN=C(c2ccc(N)cc2)c2cc3c(cc2C1)OCO3,"inconclusive: 28.2 µM [inhibitor, single point]"
6,COc1ccc2cc1Oc1ccc(cc1)C[C@H]1c3cc(c(OC)cc3CCN1C)Oc1c(OC)c(OC)cc3c1[C@H](C2)N(C)CC3,"inconclusive: 35.5 µM [inhibitor, partial curve]"
7,CN1C[C@@H](CS(=O)(=O)N(C)C)C[C@@H]2c3cccc4c3c(cn4C)C[C@H]21,"inconclusive: 37.7 µM [inhibitor, single point]"
8,Cc1nc2n(c(=O)c1CCN1CCC(c3noc4cc(F)ccc34)CC1)CCCC2,"inconclusive: 15 µM [inhibitor, partial curve, poor fit]"
9,Oc1cc2c(cc1CN1CCN(c3ccccc3)CC1)OCO2,"inconclusive: 25.1 µM [inhibitor, partial curve]"
10,C[C@]12CC[C@@H]3c4cc(O)c(O)cc4CC[C@H]3[C@@H]1CC[C@@H]2O,"inconclusive: 35.5 µM [inhibitor, partial curve]"
11,Cc1cc(/C=C2\C(=O)NC(=O)N(c3cccc(F)c3)C2=O)c(C)n1-c1cc(C(=O)O)cc(C(=O)O)c1,inactive
12,COc1ccccc1N1CCNCC1,"inconclusive: 14.1 µM [inhibitor, partial curve, poor fit]"
13,Cc1cccc(N2C(=O)NC(=O)/C(=C/c3ccc(N4CCOCC4)cc3)C2=O)c1,"inconclusive: 14.1 µM [inhibitor, partial curve]"
14,COC(=O)c1c(C)n(Cc2ccco2)c2ccc(O)cc12,"inconclusive: 15.8 µM [inhibitor, partial curve, poor fit]"
15,Cc1ccccc1N1C(=O)NC(=O)/C(=C\c2cc(Br)c(N3CCOCC3)o2)C1=O,active: 22.4 µM
16,O=C(O)c1cc[c]([Sb](=[O])([OH])[OH])cc1[N+](=O)[O-],"inconclusive: 56.2 µM [inhibitor, partial curve, poor fit]"
17,COC(=O)NC(=S)Nc1ccccc1NC(=S)NC(=O)OC,"inconclusive: 50.1 µM [inhibitor, partial curve]"
18,CN1C(=O)C(=Cc2ccc(N3CCCCCC3)cc2)C(=O)N(C)C1=O,inactive
19,O=C(c1cc([N+](=O)[O-])ccc1N1CCNCC1)N1CCOCC1,"inconclusive: 50.1 µM [inhibitor, partial curve, poor fit]"
20,Cc1cccc(-n2c(O)c(/C=N/Nc3nc4c(c(=O)n(C)c(=O)n4C)n3C)c(=O)[nH]c2=S)c1,"inconclusive: 3.98 µM [inhibitor, full curve, poor fit]"
